# Source: the supplement of paper PMC3334620
# The full ranking holds about 33,000 sequences; the median of “E-score (-0.5 to 0.5)” is about -0.04, and the highest 2% start at about 0.36. The list shows a part of the results.
# Molecular target: T1, Hmlalpha2 (UniProt P0CY09)
# T1 sequence: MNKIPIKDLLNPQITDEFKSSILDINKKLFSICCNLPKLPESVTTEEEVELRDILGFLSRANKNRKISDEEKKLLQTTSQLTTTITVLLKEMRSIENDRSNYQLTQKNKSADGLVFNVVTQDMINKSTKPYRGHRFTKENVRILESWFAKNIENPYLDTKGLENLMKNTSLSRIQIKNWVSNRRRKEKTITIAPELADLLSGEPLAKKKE
# Experiment: PBM E-score (8-mer binding enrichment) (E-score (-0.5 to 0.5)); higher = stronger / more preferred TF binding; most listed sequences are background and not binding sites
# Conditions: protein concentration: 200 nM; construct: GST-full length
# Outline: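 GST-tagged yeast TFs (full-length or DNA-binding domain) were made by PURExpress in vitro transcription/translation and applied at about 100-200 nM to universal all-10-mer Agilent arrays. The arrays were made double-stranded by primer extension, on fresh or once-stripped slides. Bound protein was detected with fluorescent anti-GST, and scans were normalised with masliner. Each ungapped eight-base word, pooled with its reverse complement, received an E-score (modified Wilcoxon-Mann-Whitney statistic) from the Universal PBM Analysis Suite.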
row,Sequence,PBM E-score
1,CGTGGGCA,-0.24
2,CGTATCGA,0.077
3,CATGGCAC,-0.00277
4,CGCGGGAC,-0.201
5,CACTTCCG,-0.0589
6,AGGAATGA,0.0575
7,GTGCGACA,0.033
8,AGTTAGTC,-0.109
9,ACGCAAGT,0.197
10,CATGGTAA,0.304
11,AATTGCGC,0.119
12,ACGTATAC,0.266
13,CTTTCCAC,-0.137
14,AGTTAGGA,0.0808
15,GGCTAGTA,0.0692
16,ACTTCCCG,-0.159
17,ACCCTCGT,0.0908
18,CTGGAGTC,-0.254
19,CTCCAAGA,-0.0615
20,CTACCGAA,-0.108
21,CGCCTAAC,-0.0908
22,ACCCCCCT,-0.282
23,CAACAATA,0.287
24,AGGATTCA,-0.0484
25,TACTGTCA,-0.0966

row,Sequence,PBM E-score
1,TAACAGGA,0.235
2,AACGAGTG,-0.0637
3,ATACTCCG,-0.0161
4,CACGCATC,0.0743
5,CGAAATGC,0.0303
6,GCCGATAC,-0.132
7,GCTAGTGA,-0.0471
8,CCGGTTAG,-0.122
9,AGTACCAC,0.0083
10,ACCCTCAT,-0.24
11,CGGCGCAG,-0.0607
12,ATTTCGTA,0.119
13,GGAGTTTA,0.0431
14,AACGTTCC,-0.108
15,CTTGAGAA,0.0948
16,GCTGGGTA,-0.0595
17,CCATTGAG,-0.0626
18,ACTTATGG,-0.214
19,AACAGTAT,0.213
20,CCCCGCCC,-0.116
21,AACTTCTC,0.0277
22,CCGATTTC,-0.182
23,ATACCAAA,0.059
24,ATGCACTC,-0.0217
25,ACAGATAG,0.0286

row,Sequence,PBM E-score
1,TACTATGA,0.0132
2,AGTCGGAC,-0.0905
3,ATTTATTG,0.11
4,ATACCGCG,0.0219
5,GTTGGACA,0.139
6,ATAGAAAG,-0.134
7,GAGCGCTC,-0.252
8,AACGGCAG,-0.0869
9,AAGTAAGT,0.00158
10,ACTTATAC,0.124
11,ATTGTGTC,0.233
12,GATCTCGC,-0.207
13,CAATTCTC,-0.0404
14,GACCATCA,-0.053
15,CAAGTTGA,-0.00258
16,GTTGCCTA,0.0217
17,CTGCCGCC,-0.331
18,AAAGTTAA,0.221
19,AAACTTAG,-0.0066
20,ATCTGCCC,-0.0692
21,TCGATACA,0.0987
22,TTCGCGAA,0.0829
23,CATAGATA,0.00388
24,CGGAAAGC,-0.114
25,ATCGCACC,-0.13

row,Sequence,PBM E-score
1,CCAAGTGA,-0.103
2,AAGGTTCC,-0.137
3,GGCGTACC,-0.0747
4,ACAGTGAT,0.113
5,CCGATAAC,-0.00703
6,ATTAGGAG,-0.0455
7,CAGACATC,-0.107
8,ATGGAAGC,-0.256
9,AATGCGGG,-0.00389
10,GGCGGTAA,0.0735
11,GTTTTGAA,0.315
12,CATGGAGA,0.029
13,CCAGGAGA,-0.152
14,GGATCGCA,-0.071
15,CCCCTAAA,-0.264
16,CCTGATAA,-0.0691
17,TACTTTGA,0.149
18,TAACGGTA,-0.0608
19,GGGTCCGA,-0.134
20,CATCGCTC,-0.209
21,CCTAACAA,0.205
22,CAGGCTGC,-0.0517
23,GTATTAAA,0.307
24,TAGGTAGA,0.0302
25,AAGTAAAG,0.0486

row,Sequence,PBM E-score
1,ATTCCCAG,0.0568
2,CCTTCAAA,0.119
3,GTACTCAC,0.14
4,TTGTCAAA,0.262
5,CTGGCGAC,-0.239
6,AACCGTCA,0.0223
7,AACCTTCG,-0.0554
8,CGTCTCTA,-0.131
9,GCAAATAA,0.216
10,ATATGCTA,-0.00111
11,CCTCCCAA,-0.146
12,GAACTAGA,0.0699
13,ACGCTGCT,0.146
14,CAAATTGC,0.0319
15,GGAGGAGA,-0.203
16,CTTGAATA,0.0228
17,GCTTCTAC,0.128
18,AGCAATGG,-0.0784
19,AGGACAGA,-0.0158
20,ATGGTGAG,-0.0828
21,GACCAGTC,-0.168
22,CCGGTGAC,-0.268
23,ACTAGCAC,-0.161
24,ATTTTATA,0.232
25,AGTTGTAA,0.248

row,Sequence,PBM E-score
1,CTCCGATA,-0.196
2,AGTACGGC,0.074
3,GCTTGAGA,-0.223
4,CTAGACGA,-0.137
5,ATAGTTTA,0.222
6,ACACCGGG,-0.00495
7,AGACTGGG,-0.175
8,TATTCTGA,-0.0366
9,CTATGGAG,-0.287
10,AAGTTTAC,0.24
11,ACTCGAAC,0.107
12,GATGACCC,-0.141
13,AGACTGCG,-0.113
14,CCAGCTCC,-0.279
15,GAATTGCA,-0.101
16,ATACCTAC,0.147
17,ACAATCTG,0.0604
18,CCATACGA,-0.0712
19,TAGTAAAA,0.306
20,ATCAAGTA,0.217
21,AGTATGTA,0.394
22,CGACTGTA,-0.0423
23,ACACCGGC,0.0323
24,TATCCTAA,0.00317
25,AAGCAGTC,-0.227

row,Sequence,PBM E-score
1,CTTCACTA,0.0215
2,ACCGAGGA,-0.15
3,ACGCTAGA,-0.169
4,TAGTGCCA,0.0539
5,TAAAGATA,0.131
6,GGGTGCAA,-0.258
7,GGGAAAGA,-0.0985
8,GTCAATGA,-0.0957
9,AAAGACTT,0.0623
10,CTGAGATA,-0.0808
11,ACTGAGCT,-0.2
12,CAAGGCGC,-0.0601
13,AAAATGCG,0.068
14,AGTCGTCC,-0.239
15,ACTGCCAC,-0.173
16,AAGCATAC,0.0955
17,GGAGCATA,-0.0857
18,GTTTTCAA,0.338
19,CACCGTTC,-0.028
20,CCGCCACG,-0.186
21,ACTATGGG,-0.237
22,ACTTGGTC,-0.0588
23,ATCATGGC,-0.22
24,ACATGTCG,0.343
25,GGCGCTGA,-0.169

row,Sequence,PBM E-score
1,AATCGTTA,0.0866
2,ATATGCCC,-0.274
3,TCCACGGA,0.0831
4,ATGCCAGG,-0.176
5,ATAGGAAG,-0.221
6,AGGAACTA,0.00386
7,CGTGATCA,-0.111
8,CTATCATC,-0.0681
9,ACTGAGGG,-0.252
10,CGGTCCAA,-0.101
11,ATATCAAG,-0.00158
12,ATAAAGCA,-0.125
13,CATACAGG,0.0528
14,CCCCTGAG,-0.21
15,AGATGTAA,0.382
16,CAAGGAGA,-0.261
17,AAAACGAT,0.0445
18,AGCGACAT,0.262
19,CCGAACCG,-0.262
20,ATTATACA,0.34
21,CGGAGGAG,-0.234
22,AACGCCCT,-0.132
23,ACGCTCGG,-0.0545
24,CAACAGCG,-0.0507
25,CAAATCGC,-0.222

row,Sequence,PBM E-score
1,CTTAAGTC,-0.191
2,GAGGGACC,-0.307
3,GGGGCCAC,-0.357
4,GGATGCAC,-0.175
5,GCCGGCAC,-0.225
6,ATTCGAAA,-0.0685
7,AGTTGGTC,-0.059
8,ACATATAA,0.293
9,GTTAGCCA,-0.00447
10,AACTACGT,0.186
11,ATGACAGA,0.122
12,ATTACAGG,0.352
13,ACGTAACA,0.385
14,ATCTAAGA,0.0719
15,GGACCGAA,0.216
16,ACGGCCGT,-0.172
17,AAGGGAAC,-0.229
18,CATAACGA,-0.00732
19,TAGTGCAA,0.122
